About 14,000 (4.5%) of roughly 310,000 compounds showed an effect of 50% or more. The effect is printed as a negative number. This is one part of the list. Where a SMILES comes first, the peptide text is derived from it. [ ]: non-standard residue; d: D form. ξ: configuration not given here. ξV = CC(C)C(N)C(=O)O
biological target: human ether-à-go-go-related gene (hERG) potassium channel (human, UniProt Q12809); test: primary screen, population patch clamp on CHO cells stably expressing hERG
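Note: peak tail current of the secondary pulse compared with the same well before compound.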

Sequence of human ether-à-go-go-related gene (hERG) potassium channel (Q12809 whole entry, looked up): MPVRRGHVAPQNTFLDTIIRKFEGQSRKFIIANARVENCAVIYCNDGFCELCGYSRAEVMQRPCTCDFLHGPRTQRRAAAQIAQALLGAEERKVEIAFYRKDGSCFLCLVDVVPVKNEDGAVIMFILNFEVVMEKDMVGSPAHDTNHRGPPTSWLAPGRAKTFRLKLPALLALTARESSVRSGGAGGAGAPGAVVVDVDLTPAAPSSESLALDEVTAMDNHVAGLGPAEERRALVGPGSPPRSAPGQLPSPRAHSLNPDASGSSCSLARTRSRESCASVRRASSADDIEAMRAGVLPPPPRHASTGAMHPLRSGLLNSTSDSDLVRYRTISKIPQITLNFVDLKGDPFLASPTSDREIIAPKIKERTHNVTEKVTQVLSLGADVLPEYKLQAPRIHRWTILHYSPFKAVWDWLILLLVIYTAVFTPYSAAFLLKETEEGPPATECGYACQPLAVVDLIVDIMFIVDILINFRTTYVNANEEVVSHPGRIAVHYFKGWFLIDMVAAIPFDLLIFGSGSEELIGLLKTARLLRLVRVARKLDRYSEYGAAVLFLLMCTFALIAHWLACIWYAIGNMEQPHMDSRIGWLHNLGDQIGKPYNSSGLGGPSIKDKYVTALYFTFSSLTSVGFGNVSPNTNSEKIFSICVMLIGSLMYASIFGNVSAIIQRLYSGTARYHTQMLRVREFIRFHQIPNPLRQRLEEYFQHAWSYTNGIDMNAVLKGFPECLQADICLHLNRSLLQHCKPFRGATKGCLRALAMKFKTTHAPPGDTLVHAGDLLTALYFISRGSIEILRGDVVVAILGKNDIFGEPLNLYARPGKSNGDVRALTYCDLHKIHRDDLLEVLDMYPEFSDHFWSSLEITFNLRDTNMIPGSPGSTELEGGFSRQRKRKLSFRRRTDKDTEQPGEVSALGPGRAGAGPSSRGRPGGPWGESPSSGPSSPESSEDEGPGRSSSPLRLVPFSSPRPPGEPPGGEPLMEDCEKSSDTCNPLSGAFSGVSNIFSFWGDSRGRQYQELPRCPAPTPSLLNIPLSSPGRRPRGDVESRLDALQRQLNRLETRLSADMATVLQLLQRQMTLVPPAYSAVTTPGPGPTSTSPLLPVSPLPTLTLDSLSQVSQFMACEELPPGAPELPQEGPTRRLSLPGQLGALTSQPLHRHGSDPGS

SMILES	hERG current change (%, negative = inhibition) at 10uM
COc1ccccc1C(=O)NCC(=O)Nc1ccccc1	5.97%
O=C(NCCN1CCCC1)c1cc(-c2ccncc2)nc2ccc(S(=O)(=O)N3CCOCC3)cc12	3.31%
CCOc1cc(C(=O)N2CCC3(CC2)OCCO3)cc(OCC)c1OCC	-12.5%
CCc1ccc(C(=O)COC(=O)CNC(=O)COc2ccccc2)cc1	-57.4%
Cc1cc(C)nc(SC2CC(=O)N(c3ccc(C)c(C)c3)C2=O)n1 (centres unmarked)	5.84%
O=C(NCc1ccc(Cl)cc1)C1CCN(C(=O)c2ccco2)CC1	-41.4%
O=C(NCCCn1ccnc1)C(=O)NCC1OCCN1S(=O)(=O)c1ccc(Cl)cc1 (centres unmarked)	19%
CSc1ccc(/C=C2\C(=N)N3N=C(CC(=O)N4CCOCC4)SC3=NC2=O)cc1	14.2%
Cc1cccc(NC(=O)CC2NCCNC2=O)c1 (centres unmarked)	8.94%
COc1ccc(N2CCN(Cc3nnnn3C3CCCCC3)CC2)cc1	6.34%
O=C(Nc1cccc(NC(=O)c2ccco2)c1)c1ccc2c(c1)OCCO2	-20.6%
CN(C)c1ccc(/C=C/C(O)=C2/C(=O)N(C)C3(C)CC2c2ccccc2O3)cc1 (centres unmarked)	18%
CCn1cc(S(=O)(=O)CC(=O)Nc2ccc3c(c2)OCCO3)c2ccccc21	-13.1%
c1ccc2c(c1)ccc1nnnn12	9.57%
CCOc1ccc(N(CC(=O)NC(C)(C)C)C(=O)CCC(=O)Nc2nccs2)cc1	0.211%
COc1ccc(-c2nc3ccc(C)cc3c(=O)o2)cc1OC	9.21%
O=S(=O)(c1ccccc1)c1nc(Cc2ccccc2)oc1N1CCOCC1	19.1%
Cc1cc2cc(CNC(=O)CC(C)C)ccc2n1C	5.18%
Cn1c(N2CCOCC2)nc2c1c(=O)n(Cc1ccc(Cl)cc1)c(=O)n2C	-54.5%
COC(=O)c1c(C)[nH]c(C(=O)NCCc2ccc(S(N)(=O)=O)cc2)c1C	24.2%
COc1ccccc1C1CCN(C(=O)c2cccs2)CC1	2.47%
Cc1ccc2nc(-c3ccccc3Cl)cc(C(=O)Nc3cc(C)on3)c2c1	-9.62%
CCN=C1S/C(=C\c2cn(CC)c3ccccc23)C(=O)N1CC	3.71%

SMILES	hERG current change (%, negative = inhibition) at 10uM
CSc1nncn1/N=C/c1ccccc1F	-7.49%
O=C(NCc1ccccc1)c1ccc(NC(=O)C2CCCO2)cc1 (centres unmarked)	-6.37%
Cc1ccc(NC(=O)NCc2ccc3c(c2)OCO3)cc1	5.69%
C/C=C(\C)C(=O)NCCN1C2=NC[C@H](Cc3ccc(O)cc3)N2C[C@H]1Cc1ccc(O)cc1	16.5%
O=C(CCC(=O)c1cccs1)NCc1cccc(C(F)(F)F)c1	-7.88%
CC(=O)NC(C(=O)NCC(N)=O)C(C)C (centres unmarked) (Ac-[ξV]-Gly-NH2)	1.56%
CCc1c(C)nc2cc(C)[nH]n2c1=O	9.73%
Cc1nn(C)c(C)c1NC(=O)c1ccc(S(=O)(=O)N(C)C)cc1	10.3%
COc1ccc(CNC(N)=O)cc1	-0.197%
CCOC(=O)c1cc(C)nc(Sc2ccc(C)cc2)c1C#N	5.36%
COc1ccccc1N(C)S(=O)(=O)c1ccc(Cl)c(C(=O)N2CCC2)c1	-6.47%
C=CCOC(=O)C1=C[C@@H](c2cn(C(C)=O)c3ccccc23)C[C@@H](OCc2ccc(CO)cc2)O1	-93.5%
CCOc1ccccc1N1CCN(C(=S)NCc2ccc(Cl)cc2)CC1	21%
COc1ccc(S(=O)(=O)Nc2ccc(-c3ccc(N4CCCC4)nn3)cc2)cc1C	5.46%
O=c1[nH]c(SCc2cccc(Cl)c2)nc2c1CCCC2	0.225%
COc1ccccc1-c1cc(C(=O)NCCCn2ccnc2)no1	-14.2%
CCS(=O)(=O)C1=NN2C(=N)/C(=C\c3ccc(OS(=O)(=O)c4ccccc4)c(OC)c3)C(=O)N=C2S1	24%
COCCNC(=O)Nc1ccc2c(c1)N(C)C(=O)c1ccccc1S2	-0.368%
Cc1ccc(C)c(C(=O)Nc2ccncc2)c1	20.5%
COc1ccc(-c2cc(C(=O)N3CCCCCC3)c3cc(C)ccc3n2)cc1	23.1%
COc1ccc(S(=O)(=O)Nc2nc3ccccc3nc2Nc2ccc3c(c2)OCO3)cc1	0.543%
CCC1CCCCN1S(=O)(=O)Cc1ccccc1Cl (centres unmarked)	6.5%
Oc1ccc(C=Nc2cccc3ncccc23)c(O)c1	0.892%

SMILES	hERG current change (%, negative = inhibition) at 10uM
CC1(N2CCCCC2)CC2(O)C(=[N+]1[O-])CCC/C2=N\O (centres unmarked)	5.63%
COc1ccc(C(CC(=O)O)NS(=O)(=O)c2ccc3c(c2)NC(=O)CO3)cc1 (centres unmarked)	6.4%
CCCN(CCC)CCCNC(=O)C1c2cc(OC)c(OC)cc2C(=O)N(C)C1c1cccnc1 (centres unmarked)	21.1%
O=C(CN1CCc2cc3c(cc2C1)OCCCO3)Nc1c(F)cccc1F	14.1%
CCCCCOc1ccc(C2NC(=O)NC2=O)cc1 (centres unmarked)	-7.42%
COc1ccc(C2=NCc3nnc(C)n3-c3ccc(Cl)cc32)cc1Cl	-10.9%
COc1ccccc1N1CCNCC1.Cl	22.5%
Cc1ccc(NC(=O)C2CCN(C(=O)c3ccco3)CC2)cc1	-14.2%
COc1ccc(C(=O)NCCS(=O)(=O)N2CCN(Cc3ccccc3)CC2)cc1	-16.7%
CN1C(=O)c2ccccc2Sc2ccc(C(=O)N3CCC4(CC3)OCCO4)cc21	-16.9%
CC(C)(C)C(=O)CN1CCN(S(=O)(=O)c2ccc(F)cc2)CC1	10.7%
COc1ccccc1-c1nc(C#N)c(N2CCC(Cc3ccccc3)CC2)o1	4.93%
Cc1ccc(Nc2nc(N3CCOCC3)nc(N3CCOCC3)n2)cc1C.Cl	-0.303%
CN(CCNC(=O)Cn1c(=O)sc2ccccc21)Cc1ccccc1	-16.4%
Cc1cccc(NC(=O)CN2CCN(C(=O)c3cncn3-c3ccc(F)cc3)CC2)c1C	-60.9%
O=C(NC1CCCCC1)c1ccccc1NC(=O)C1CC(=O)N(c2ccccc2)C1 (centres unmarked)	-76.8%
CCOC(=O)C1(Cc2ccc(OC)cc2)CCN(C(=O)CCN2CCCC2=O)CC1	-3.22%
CCOc1ccc(CCNC(=O)C2(c3ccccc3)CC2)cc1OCC	8.6%
Cc1cc(C)c(S(=O)(=O)N2CCC(C(=O)NCc3ccco3)CC2)c(C)c1	-25.5%
CCCCC1(C)OC(=O)C(=Cc2ccc(N(CC)CC)cc2)C(=O)O1 (centres unmarked)	1.88%
Cc1cc(=O)n2nc(N3CCCC(C(=O)NCCC4=CCCCC4)C3)sc2n1 (centres unmarked)	-19.8%
O=C(NCCc1ccccc1)c1ccc(=O)oc1	11.5%
Cc1cccc(N2CCN(C(=O)c3cccc(N4CCCC4=O)c3)C(C)C2)c1 (centres unmarked)	-3.19%

SMILES	hERG current change (%, negative = inhibition) at 10uM
O=C1CCc2cc(S(=O)(=O)NC(Cc3ccccc3)C(=O)NCCC3=CCCCC3)ccc2N1 (centres unmarked)	-46.7%
COc1ccc(C(=O)O/N=C(\N)c2ccncc2)cc1OC	-5.55%
CCN(CC)S(=O)(=O)c1cccc(NC(=O)CNc2cccc(S(=O)(=O)N3CCCC3)c2)c1	5.46%
CCOC(=O)C/C(N)=N/N(C)c1ncc(C(F)(F)F)cc1Cl	30.7%
Cc1cc(C)cc(NC2=CC(=O)CC(c3ccco3)C2)c1 (centres unmarked)	17.3%
CN(C)CCCNc1oc(/C=C/c2ccccc2)nc1C#N	-32.5%
CCOC(=O)C1CCN(C(=O)c2ccc(Cl)c(NC3=NC4CS(=O)(=O)CC4S3)c2)CC1 (centres unmarked)	12.2%
CC(C)C[C@H](NC(=O)OC(C)(C)C)C(=O)N1CCC(C(=O)O)CC1	12.4%
Cc1cccc2sc(NC(=O)c3ccc(Cl)s3)nc12	4.72%
CC(C)N1CCC(N2CCN(Cc3cccnc3)CC2CCO)CC1 (centres unmarked)	20.3%
CNC(=O)CSc1nc2cc(S(=O)(=O)Nc3ccc(OC)cc3)ccc2o1	-8.2%
O=C(Nc1ccc2c(c1)OCCO2)C1CCN(C(=O)c2ccc(Cl)cc2)CC1	-12.5%
O=C(CCc1nc2ccccc2c(=O)[nH]1)Nc1ccc(N2CCCCC2)cc1	2.46%
O=C(C1CC1)N1CCc2cc(Br)cc(S(=O)(=O)NCCN3CCOCC3)c21	-4.77%
COc1ccccc1C(=O)Nc1ccc2c(c1)nc(CCNC(C)=O)n2C	9.58%
CCc1ccccc1NC(=O)CN1CCC(NC(=O)COC)CC1.Cl	13.4%
CNc1nc(-c2ccc([N+](=O)[O-])cc2)cs1	2.64%
C[C@H](NC(=O)c1ccc2ccccc2c1)C(=O)N1CCC2(CC1)NCCc1[nH]cnc12	5.25%
COc1ccc(/C=N/NC(=O)c2ccn[nH]2)cc1COc1ccc([N+](=O)[O-])c(C)c1	2.26%
CCc1c(-c2ccccc2)nc(N)c(C#N)c1-c1cccs1	2.85%
